Data from paper PMC4336329 (PLoS ONE, 2015).
The campaign covered roughly 310,000 compounds. About 14,000 (4.5%) showed an effect of 50% or more. Effects have a minus sign here. The list shows a part of the results.

biological target: human ether-à-go-go-related gene (hERG) potassium channel (human, UniProt Q12809); assay: primary screen, population patch clamp on CHO cells stably expressing hERG
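Further: peak tail current of the secondary pulse compared with the same well before compound.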

Sequence of human ether-à-go-go-related gene (hERG) potassium channel (Q12809 whole entry, looked up): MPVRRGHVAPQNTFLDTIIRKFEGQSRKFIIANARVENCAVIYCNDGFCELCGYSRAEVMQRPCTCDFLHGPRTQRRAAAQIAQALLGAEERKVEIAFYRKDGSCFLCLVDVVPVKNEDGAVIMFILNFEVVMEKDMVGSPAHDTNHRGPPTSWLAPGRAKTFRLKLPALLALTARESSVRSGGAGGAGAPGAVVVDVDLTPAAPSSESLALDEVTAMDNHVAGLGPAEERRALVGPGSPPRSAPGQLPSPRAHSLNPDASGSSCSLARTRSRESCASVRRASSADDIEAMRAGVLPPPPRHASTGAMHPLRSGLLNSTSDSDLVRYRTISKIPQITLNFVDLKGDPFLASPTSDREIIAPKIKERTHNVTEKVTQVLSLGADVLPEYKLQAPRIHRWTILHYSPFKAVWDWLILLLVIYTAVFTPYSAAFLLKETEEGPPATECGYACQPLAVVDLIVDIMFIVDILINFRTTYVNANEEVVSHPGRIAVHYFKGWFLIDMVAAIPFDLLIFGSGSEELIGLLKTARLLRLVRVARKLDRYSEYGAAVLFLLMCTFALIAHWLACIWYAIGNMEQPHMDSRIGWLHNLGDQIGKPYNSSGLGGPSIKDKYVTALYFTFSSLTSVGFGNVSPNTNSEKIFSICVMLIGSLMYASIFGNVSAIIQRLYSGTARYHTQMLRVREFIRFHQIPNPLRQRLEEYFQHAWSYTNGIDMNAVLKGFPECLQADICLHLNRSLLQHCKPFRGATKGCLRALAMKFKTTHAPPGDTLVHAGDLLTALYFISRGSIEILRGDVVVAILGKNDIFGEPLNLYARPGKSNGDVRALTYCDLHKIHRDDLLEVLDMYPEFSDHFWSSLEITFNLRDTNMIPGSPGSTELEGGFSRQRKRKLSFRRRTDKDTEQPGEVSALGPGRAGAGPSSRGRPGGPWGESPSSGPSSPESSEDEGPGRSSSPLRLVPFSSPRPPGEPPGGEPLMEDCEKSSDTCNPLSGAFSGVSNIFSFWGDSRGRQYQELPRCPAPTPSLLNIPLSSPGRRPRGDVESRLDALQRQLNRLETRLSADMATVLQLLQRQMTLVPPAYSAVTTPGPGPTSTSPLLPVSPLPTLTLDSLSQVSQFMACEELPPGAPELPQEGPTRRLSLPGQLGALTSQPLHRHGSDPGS

Row | SMILES | hERG current change (%, negative = inhibition) at 10uM
1 | CC(=O)c1cc(CN2CCN(CC=C(C)C)C(CCO)C2)cs1 (stereo not drawn) | 16.3%
2 | C=CCSc1[nH]c(=O)cc(C)c1C(N)=O | 9.75%
3 | CCOC(=O)c1sc2nc(C)nc(SCC(N)=O)c2c1C | 13.5%
4 | CCOC(=O)c1csc(NC(=O)CSc2nnnn2-c2cccc(OC)c2)n1 | 6.64%
5 | CCc1nnc(NC(=O)CSc2nnc(Cc3cc(=O)[nH]c(=O)[nH]3)n2-c2cccc(OC)c2)s1 | 24.9%
6 | O=C(Nc1cccc2c1[nH]c1ccccc12)C(F)(F)F | -15.5%
7 | COCCNC(=O)c1onc(CSc2cccc(C)c2)c1C(=O)O | 2.32%
8 | O=C(CSc1nc2ccccc2c(=O)[nH]1)Nc1nc(-c2ccc(Br)cc2)cs1 | 14.8%
9 | CC1CCN(C2(O)C(=O)Nc3ccc([N+](=O)[O-])cc32)CC1 (stereo not drawn) | -0.363%
10 | COc1ccc(C2C(C(=O)N3CCN(c4ccccn4)CC3)CCC(=O)N2c2ccc(OC)cc2)cc1 (stereo not drawn) | -47.3%
11 | CCOc1ccccc1C(=O)Nc1ccc(NC(=O)c2ccccc2)cc1 | 12.7%
12 | O=C(CN1CCN(Cc2ccc(F)cc2Cl)CC1)NCc1ccccc1 | -23.2%
13 | Cc1c(C#N)c(N=CN(C)C)c(C(=O)c2ccc(Br)cc2)n1-c1ccc(Cl)cc1 | 5.81%
14 | Cc1cc([N+](=O)[O-])nn1CC(=O)Nc1ccc(Cc2ccncc2)cc1 | -10.9%
15 | CC1CCN(CC(C)CNC(=O)c2cc(-c3ccccn3)nc3ccccc23)CC1 (stereo not drawn) | -62.5%
16 | CC(C)NC(=O)CCCc1c[nH]c2ccccc12 | 25.2%
17 | CCOC(=O)C(O)(c1ccc(N=c2ccccn2C)cc1)C(F)(F)F (stereo not drawn) | -10.8%
18 | N#CC(C#N)=C1C=CC=CN1/C(=C\c1ccccc1Cl)C(=O)c1ccccc1 | 8.73%
19 | c1ccc2[nH]c(C3CC3)nc2c1 | 16.4%
20 | Cc1nnc2sc(-c3ccncc3)nn12 | 6.63%
21 | O=C(NCc1cccs1)c1ccncc1 | 0.723%
22 | O=C(O)C1CCCN(S(=O)(=O)c2ccc3c(c2)OCCO3)C1 (stereo not drawn) | 39.7%
23 | CC1Sc2ccc(S(=O)(=O)N3CCC(C(=O)NCC(C)c4ccccc4)CC3)cc2NC1=O (stereo not drawn) | -10.5%

Row | SMILES | hERG current change (%, negative = inhibition) at 10uM
24 | Cc1cc(C)c(S(=O)(=O)N2CCCC(C(=O)NCc3ccncc3)C2)c(C)c1 (stereo not drawn) | -18.9%
25 | COc1ccccc1C1CC(c2ccccc2)=NN1C(=O)c1ccccc1 (stereo not drawn) | 11.9%
26 | O=C(Nc1ccc([N+](=O)[O-])cn1)c1cc(-c2cccc(Cl)c2)nc2ccccc12 | -8.44%
27 | CC[C@@H](CO)NC(=O)[C@@H]1C=C2c3cccc4c3c(cn4C)C[C@H]2N(C)C1.O=C([O-])/C=C\C(=O)[O-] | 2.55%
28 | COc1ccc(-c2nc(CSCC(=O)N3CCc4ccccc43)c(C)o2)cc1OC | -3.67%
29 | COC(=O)c1ccc(C(=O)OC)c(NC(=O)COC(=O)C2CCCCC2)c1 | 2.27%
30 | O=C(Nc1ccccc1Oc1ccccc1)c1cc([N+](=O)[O-])ccc1Cl | -17.7%
31 | N#Cc1cc2ccccc2n2nnnc12 | -2.06%
32 | COCCn1c(SC(C)C(=O)NC2CCCCC2C)nc2ccccc2c1=O (stereo not drawn) | -2.99%
33 | CCCS/C(N)=N/N=C/c1cc(C)ccc1O | 9.36%
34 | Cn1nnnc1Sc1ncnc2scc(-c3cccs3)c12 | -9.55%
35 | CCN(CC)C(=O)CSc1nc2ncccc2[nH]1 | -3.36%
36 | COC(=O)C1=C(C)N(C)C(=O)NC1c1cc(Cl)c(O)c(OC)c1 (stereo not drawn) | -4.18%
37 | O=C(OCCCN1CCCC1)C1(c2ccccc2)CCCC1 | -16.8%
38 | COc1ccc(C(=O)NNC(=O)c2cccc(F)c2)cc1 | 1.2%
39 | O=S(=O)(NCc1cccnc1)c1ccc(Cl)nc1 | 12.6%
40 | CC(C)(C)c1csc(NC(=O)Cc2ccc(S(=O)(=O)N3CCOCC3)s2)n1 | -33.6%
41 | CC(=O)c1ccc(NC(=S)NCc2ccco2)cc1 | 20.2%
42 | NC(=O)c1ccc(OCC(F)(F)C(F)(F)C(F)(F)C(F)(F)C(F)(F)C(F)F)cc1 | 3.8%
43 | CC(=O)Nc1ccc(OCC(=O)NCc2ccccc2)cc1 | 19%
44 | Cc1nc(N2CCOCC2)[nH]c(=O)c1C(O)C(Cl)(Cl)Cl (stereo not drawn) | 8.9%
45 | CCOc1cc(N2CCOCC2)c(OCC)cc1NC(=O)CN1CCC(Cc2ccccc2)CC1 | -3.67%
